Among all 45,000 compounds or so, about 200 (0.44%) were called active. Roughly 7% stayed inconclusive and do not appear here. Calls come from the whole dose curve; as a rule, active = well fitted activation curve with a large enough effect; inconclusive = small, poorly fitted or top-dose-only effect; inactive = no such curve, though single readings can be large or run the other way. The list shows a part of the results.

This test is described as follows: qHTS of TDP-43 Inhibitors: NCGC Sytravon Library Screen. Note: 0% is about no effect; nearly all actives have a fitted effect of over 55% in size. The following applies: yeast TDP-43 toxicity rescue, BacTiter-Glo growth, 24 h; series mostly up to 46.1 µM; growth rescue (activation): at the top concentration. The source says: The goal of this project is to identify new chemical probes capable of reversing the toxicity associated with TDP-43 which is associated with frontotemporal lobar degeneration and amyotrophic lateral sclerosis. These compounds will provide a complementary approach to deciphering the tangled mechanisms of toxicity and protection that we have uncovered through genome-wide genetic screens and are beginning to uncover in a large-scale proteomics analysis with mass spectroscopy. To this end, a miniaturized assay was developed to be screened against the Molecular Libraries Small Molecule Repository (MLSMR) to discover TDP-43 inhibitors. Please note that in the set-up this yeast-based assay compounds that inhibit as TDP-43, have a read-out as activators. NIH Chemical Genomics Center [NCGC] NIH Molecular Libraries Probe Centers Network [MLPCN] Assay Submitter (PI): Susan Lindquist, Whitehead Institute/MIT MLPCN Grant: R21 NS060957
Dispense 2.5 microL yeast galactose medium per 1536-well plate, pin compound, dispense 2.5 microL TDP-43 expressing yeast in galactose medium at OD600=0.02 (pregrown in raffinose medium to mid-log phase) per well, incubate for 24 hr at 30 deg C, and cell growth will be measured using 5 microL of Bactiter/Glo reagent to entire plate and read using Luminescence Protocol in ViewLux.
`Cc1ccccc1N/N=C/c1sc(=O)n(Cc2cccc(C(=O)O)c2)c1Cl`: the “growth rescue (activation)” value was inactive: 11.1%.

On to `COc1cc(/C=C2/C(=O)NN(c3ccc(Cl)cc3)C2=O)cc(Br)c1O`, for which the “growth rescue (activation)” value is inactive: -2.3%.

Turning to `O=C(O)COc1ccccc1/C=N/NC(=O)CSc1nnc(SCc2cccc3ccccc23)s1`, the “growth rescue (activation)” value was inactive: -6.35%.

Take `CC(C)(C)c1ccc2c(c1)OC(C(=O)N/N=C\c1ccc(-c3cccc(C(=O)O)c3)o1)CO2` (centres undefined): the “growth rescue (activation)” value is inactive: 26.9%.

Values taken from PubChem BioAssay AID1347073 (National Center for Advancing Translational Sciences (NCATS), 2019).
